The structures appear in SMILES notation. The full ranking holds about 13,000 compounds; the median of “IFI” is about 4, and the highest 2% start at about 17. The list shows a part of the results.

This passage reports IFI results from ChEMBL document CHEMBL1157539, “Thousands of chemical starting points for antimalarial lead identification” (Nature, 2010).

A short description of the assay: GSK_TCMDC: Inhibition Frequency Index (IFI). The number of non-kinase HTS assays where a compound showed > 50 % inhibition, expressed as a percentage of the number of such assays in which the compound was tested (-0 is zero). The class given is functional.
In turn, `Cc1ccc(CNC(=N)NC(=O)c2nc(Cl)c(NCc3ccc(Cl)cc3)nc2N)c(C)c1` showed an IFI of 5.56%.

`COc1cccc2c(Oc3ccccc3C)ccnc12` had an IFI of 2.99%.

For `CCOc1ccc2c(=NN=Cc3cccc(Cl)c3)cc(C)[nH]c2c1`, the IFI amounted to 2.03%.

Take `Cc1cnc2ccc(NS(=O)(=O)c3sc4ccc(Cl)cc4c3C)cc2c1N1CCNCC1`: the IFI was determined as 1.4%.

In turn, `CN(C)CCNCc1cccc(-c2ccc3c(Nc4ccc(F)cc4Cl)ccnc3c2)c1` yielded an IFI of 0.74%.

`CCOc1ccc(NC(=O)c2cn3nc(-c4ccc(OCC)cc4)cc3nc2C2CCNCC2)cc1` yielded an IFI of 6.76%.

With `O=C(Nc1ccccc1)N1CCOC(CCN2CCC(F)(F)CC2)(c2ccc(Cl)c(Cl)c2)C1` (stereo not given), the IFI came out at 5.76%.

With `O=C(Nc1cccc(CN2CCCN(Cc3ccc4c(c3)OCO4)CC2)c1)c1ccc2ccccc2c1`, the IFI turned out to be 4.76%.

As to `COCCNCc1nc(-c2ccc3c(Nc4ccc(F)c(O)c4)ccnc3c2)cs1`, the IFI was found to be 4.48%.

Turning to `CCCCc1cc(NC2CCN(C)CC2)nc(Nc2ccccc2)n1`, the IFI was determined as 5.56%.

In the case of `O=C(Cn1c(CCc2cccc(F)c2F)nc(=O)c2cccnc21)N(Cc1ccc(-c2ccc(C(F)(F)F)cc2)cc1)C1CCN(C2CCOCC2)CC1`, the IFI came out at 15.7%.

As to `CCN(CC)CCNc1nc(C=Cc2ccc(Cl)cc2)nc2cc3ccccc3cc12`, the IFI was 9.46%.

`CC(C)c1ccc(CN2CCC(NC(=O)c3ccc(-c4ccccc4F)s3)CC2)cc1` had an IFI of 15.5%.

With `C=C(C)Cn1cc(C2CCN(CCN3CCC(CNC(=O)c4ccc(-c5ccc(C#N)cc5)cc4)CC3)CC2)c2ccccc21`, the IFI was 10.9%.

Molecule `O=C(NCC1CCC(C(=O)NCCN2CCCCC2)CC1)c1ccc(O)c(-c2ccc(Cl)c(Cl)c2)c1` (stereo not given) yielded an IFI of 0.76%.

Regarding `CCOc1cc(C)ccc1NC1CCN(CCCCNC(=O)c2ccc(NC(=O)c3ccc(Cl)cc3)cc2)CC1`, the IFI is 5.31%.

As to `CN1CCCN(Cc2ccc(-c3ccc(NC(=O)c4cccc(Cl)c4)cc3)cc2)CC1`, the IFI is 8.91%.

`COc1ccc(/C=C/C(=O)N2CCc3cc4nccc(N5CCN6CCC[C@H]6C5)c4cc32)cc1` gave an IFI of 4.48%.

Consider `Cc1cc(-c2c[nH]c3ncc(-c4cccc5ncccc45)cc23)ccc1C(=O)O`, for which the IFI stood at 2.8%.

In turn, `Cc1[nH]cc(Br)c(=O)c1-c1ccc(Oc2ccccc2)cc1` registered an IFI of 1.83%.

Regarding `NC(=O)C1CCN(Cc2cccc(-c3cccc(-c4nc5cc(C(F)(F)F)ccc5[nH]4)c3)c2)CC1`, the IFI is 4.81%.

`CCOC(=O)c1cnc2c(C(F)(F)F)cccc2c1Nc1ccc(O)cc1`: the IFI amounted to 10%.

Take `COc1cc(Cc2cnc(N)nc2N)cc(OC)c1OCCCCCN1C(=O)c2ccccc2C1=O`: the IFI stood at 4.29%.

Take `Cn1nccc1C(=O)NCCNCc1cccc(-c2ccc(-c3nc4ccccc4[nH]3)cc2)c1`: the IFI was determined as 2.94%.

`Clc1ccc(OCc2ccccc2)c(-c2nc(-c3nc4ncc(Br)cc4[nH]3)cs2)c1` gave an IFI of 1.32%.
